Measurements from PubChem BioAssay AID651820 (National Center for Advancing Translational Sciences (NCATS), 2012).
In all, about 340,000 compounds went through this assay and about 12,000 (3.5%) were called active. The inconclusive results got no clear call from the source; some entries with a clear call stand among them for comparison. The call rests on the fitted dose curve; in most records, active means well fitted inhibition curve with a large enough effect; inconclusive means small, poorly fitted or top-dose-only effect, or another doubt; inactive means no such curve, though single readings can be large or run the other way. No potency is given beside an inconclusive call; the fits are too rough.

Assay: qHTS Assay for Inhibitors of Hepatitis C Virus (HCV)
Conditions: Huh7.5.1 HCVcc-Cre (HCVcc is cell-culture hepatitis C virus) infection, luciferase reporter, 44 h; activity change, negative = inhibition: at 41.8 µM (top of the series) unless noted
In short: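 Infectious HCVcc-Cre (~0.5 moi) was added to cells just after compound, with cells seeded 4 h earlier at 1,000 per well. Luciferase activity after 44 h culture reported infection; substrate was incubated 15 min at room temperature before reading.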
On the % scale 0 is the no-effect control and ±100 the full control effect; potency means the concentration at half of the fitted maximal effect; tags describe the fitted curve by direction and shape.

Row | SMILES | Potency | activity change, negative = inhibition
1 | COc1cc(-c2cc(C(=O)N3CCN(c4ccccn4)CC3)c3ccccc3n2)cc(OC)c1OC | active: 12.6 µM | 
2 | C/C=C/C=C\C(=O)Nc1cccc(C2=NOC3(C2)C[C@@H](C(N)=O)N(C(=O)c2cc([N+](=O)[O-])cc([N+](=O)[O-])c2)C3)c1 (some centres undefined) | inconclusive [inhibitor, full curve] | 
3 | O=C(CSc1nncn1-c1ccccc1)Nc1c(F)cccc1F |  | inactive: 18.5%
4 | FC(F)(F)c1ccccc1N/N=C/c1cccnc1 |  | inactive: -3.85%
5 | CCC1CCCCN1C(=O)COC(=O)c1n[nH]c2ccccc12 (centres undefined) | inconclusive [inhibitor, single point] | 
6 | O=C(COc1ccc(Cl)cc1)Nc1ccc(CN2CCOCC2)cc1 | inconclusive [inhibitor, single point] | 
7 | COc1ccccc1NC(=O)c1cc2c(CO)cnc(C)c2oc1=Nc1ccccc1 | inconclusive [inhibitor, full curve] | 
8 | CCOC(=O)c1c(C)[nH]c(C)c1C(=O)CSc1nc2ccccc2c(=O)n1-c1ccccc1C | inconclusive [inhibitor, single point] | 
9 | CCn1nc(C)c(CN2CCC(C(=O)Nc3cccc(-c4cccc(F)c4)c3)CC2)c1C | inconclusive [inhibitor, partial curve] | 
10 | NC(=O)CC(NC(=O)Cc1ccc(Br)cc1)c1ccc(NCCN2CCCC2)c([N+](=O)[O-])c1 (centres undefined) |  | inactive: 19.6%
11 | CCOc1ccccc1NC(=O)COC(=O)/C=C/c1ccc(OC)c(OC)c1 | inconclusive [inhibitor, single point] | 
12 | Clc1ccc(CNc2ccc3nnc(-c4ccccc4)n3n2)cc1 |  | inactive: 2.87% [at 8.37 µM]
13 | COC(=O)C(COC(=O)c1c(F)cccc1F)NC(=O)c1c(F)cccc1F (centres undefined) |  | inactive: 3.55%
14 | COc1cccc(CC2(CO)CCCN(Cc3ccc(CN4CCCCC4)s3)C2)c1 (centres undefined) | inconclusive [inhibitor, single point] | 
15 | CCN(N=Nc1cccc([N+](=O)[O-])c1)c1cccc([N+](=O)[O-])c1 | inconclusive [inhibitor, partial curve, poor fit] | 
16 | Cc1ccc(S(=O)(=O)N(C)Cc2ccc(C(=O)NN=C(CC(C)C)CC(C)C)cc2)cc1 | inconclusive [inhibitor, partial curve, poor fit] | 
17 | Cc1ccc(C)c(OCC(=O)NNC(=O)C2CC2)c1 |  | inactive: 21.2%
18 | O=C(c1cnn2c(C(F)F)cc(-c3ccccc3)nc12)N1CCCCC1c1cccnc1 (centres undefined) |  | inactive: -15.3%
19 | Fc1ccc(C(c2nnnn2CCc2ccccc2)N2CCCc3ccccc32)cc1 (centres undefined) | inconclusive [inhibitor, single point] | 
20 | Cc1cccc(OCC(=O)Nc2ccccc2N2CCCCC2)c1 | inconclusive [inhibitor, partial curve] | 
21 | NC(=O)C(c1ccc(Cl)cc1)c1ccc(Sc2ccc(Cl)cc2)nn1 (centres undefined) | inconclusive [inhibitor, single point] | 
22 | COc1ccc(NN=Nc2ccc([N+](=O)[O-])cc2)cc1 |  | inactive: -19.1%
23 | COc1ccccc1Nc1nc(Cl)nc(NC(C)(C)C)n1 | inconclusive [inhibitor, partial curve] | 

Row | SMILES | Potency | activity change, negative = inhibition
24 | COc1ccc(C2C3C(=O)N(Cc4ccccc4)C(=O)C3ON2c2ccccc2)c(OC)c1OC (centres undefined) | inconclusive [inhibitor, single point] | 
25 | CCN(CC)CCN(C(=O)c1ccc(CN2CCCCC2)o1)C(C(=O)NC1CCCCC1)c1ccc(F)cc1 (centres undefined) | inconclusive [inhibitor, partial curve] | 
26 | Cc1cc(C)cc(C(=O)N(CCc2ccccc2)C2CC3CCC(C2)N3C)c1 (centres undefined) |  | inactive: -24.7%
27 | Nc1cccc(O)c1 |  | inactive: 14.1%
28 | CSc1ccc(S(=O)(=O)NC2CCCCC2)cc1 |  | inactive: 15.8%
29 | CCOC(=O)C1=C(N)OC(CCl)=C(C#N)C1c1ccsc1 (centres undefined) |  | inactive: 6.98%
30 | COc1ccc(C2=NN(C(=O)c3ccccc3)C(c3cccc([N+](=O)[O-])c3)C2)cc1 (centres undefined) | inconclusive [inhibitor, single point] | 
31 | CN1CCC(c2c[nH]c3ccc(O)cc23)CC1 | inconclusive [inhibitor, partial curve, poor fit] | 
32 | COc1ccc(N=Cc2c(O)n(-c3cccc(C)n3)c(=O)c3ccccc23)c(OC)c1 |  | inconclusive: -46.1% [inhibitor]
33 | O=C(O)C1C(=O)NCC1c1ccccc1 (centres undefined) |  | inactive: 17.4%
34 | CCOC(=O)c1cc(-c2ccccc2)sc1NC(=O)CSc1nnnn1C | inconclusive [inhibitor, full curve] | 
35 | COc1ccc(C(=O)Nc2nc3ccc(S(C)(=O)=O)cc3s2)cc1OC | inconclusive [inhibitor, full curve] | 
36 | CCN(CC)CCOC(=O)c1ccc(NC(=O)COc2cc(=O)n(CC)c3ccccc23)cc1 | inconclusive [inhibitor, single point] | 
37 | COc1ccc(Cl)cc1NC(=O)CN(C)C(=O)c1n[nH]c2ccccc12 | inconclusive [inhibitor, partial curve] | 
38 | Cc1c(O)c(=O)ccn1Cc1ccccc1 | inconclusive [inhibitor, partial curve, poor fit] | 
39 | O=C1c2cccc3c([N+](=O)[O-])ccc(c23)C(=O)N1CC1CCCO1 (centres undefined) | inconclusive [inhibitor, single point] | 
40 | CCOc1ccc(NC(=S)N(CCc2c(C)[nH]c3ccccc23)Cc2ccco2)cc1 | inconclusive [inhibitor, partial curve] | 
41 | CCOC(=O)Cc1csc(NC(=O)/C=C/c2cccc(Br)c2)n1 | active: 11.2 µM | 
42 | O=C(Nc1cccc(Cl)c1)c1cc(S(=O)(=O)NCCc2ccc(Cl)cc2)ccc1F | inconclusive [inhibitor, single point] | 
43 | O=[N+]([O-])c1ccc2[nH]c3c(c2c1)CCCC3O (centres undefined) | inconclusive [inhibitor, partial curve] | 
44 | Cc1cc(C)c(NC(=O)COC(=O)Cn2nc(-c3ccccc3)oc2=O)c(C)c1 |  | inactive: 11.1%
45 | CCn1cc(C(=O)O)c(=O)c2cc(F)c(N3CCN(C(=S)NC(=O)c4ccc(F)c(F)c4)CC3)cc21 |  | inactive: 14%
46 | COc1ccc(/C=N\NC(=O)c2cc(OCC(F)(F)F)ccc2OCC(F)(F)F)cc1 | inconclusive [inhibitor, partial curve] | 

Row | SMILES | Potency | activity change, negative = inhibition
47 | CCCCN(C(=O)c1cccc(S(=O)(=O)N(C)c2ccc(C)cc2)c1)c1c(N)n(CCCC)c(=O)[nH]c1=O | inconclusive [inhibitor, single point] | 
48 | COc1ccccc1CNCc1cc(Br)ccc1OC | inconclusive [inhibitor, single point] | 
49 | CC(=O)OC(C)C1C2=C(C(=O)CC1(C)O)C(=O)c1c(ccc(-c3ccc4c(c3O)C(=O)C3=C(C4=O)C(C(C)OC(C)=O)C(C)(O)CC3=O)c1O)C2=O (centres undefined) | inconclusive [inhibitor, single point] | 
50 | C=CCOc1ccc(/C=C/C(=O)N2CCCN(S(=O)(=O)c3c(C)noc3C)CC2)cc1 | inconclusive [inhibitor, single point] | 
51 | O=C(NCC(c1ccco1)N1CCCC1)c1cc(S(=O)(=O)N2CCCCC2)ccc1Cl (centres undefined) |  | inactive: 7.55%
52 | Cn1c(CNC(=O)CNC(=O)c2ccc(F)cc2)cc(=O)n(C)c1=O |  | inactive: 6.06%
53 | O=C(CSc1nnc(-c2ccc3c(c2)OCO3)n1-c1ccccc1)c1ccc(Cl)cc1 | inconclusive [inhibitor, single point] | 
54 | COc1cc(OC)c2c(-c3cccc(-c4ccc(N(C)C)cc4)c3)cc(=O)oc2c1 | inconclusive [inhibitor, partial curve] | 
55 | COCCN(CC(=O)Nc1cccc(C)c1C)C(=O)CN1C(=O)NC2(CCCCC2)C1=O |  | inactive: 13.3%
56 | COc1ccccc1C1(O)CCN(CC(=O)Nc2nc(-c3ccccc3)cs2)CC1 | active: 10 µM | 
57 | CCC(=O)NC(=S)Nc1ccc(NC(=O)COc2ccccc2)cc1 | inconclusive [inhibitor, partial curve, poor fit] | 
58 | CCNC(=O)O/N=C(\C)c1sc(-c2ccc(Cl)cc2)nc1C | active: 10 µM | 
59 | Cc1occc1C(=O)N/N=C/C(Br)=C\c1ccccc1 | inconclusive [inhibitor, single point] | 
60 | C[C@H](CO)N1C[C@H](C)[C@H](CN(C)CC2CC2)Oc2ccc(NC(=O)CCN3CCOCC3)cc2C1=O |  | inactive: -0.967%
61 | CCCCCCO | inconclusive [inhibitor, single point] | 
62 | CCOc1ccccc1NC(=O)Cn1nnc(-c2ccc(OCC)c(OCC)c2)n1 | active: 8.91 µM | 
63 | COc1ccc(-c2cc(CCCC(=O)N3CCN(c4ccc(OC)cc4)CC3)no2)cc1 | active: 11.2 µM | 
64 | CCN(C(=O)CSc1nnc(Cc2cccc3ccccc23)n1N)C1CCS(=O)(=O)C1 (centres undefined) |  | inactive: 5.95%
65 | CN(C)c1cc(N/N=C/c2ccccc2C(F)(F)F)nc(N(C)C)n1 | inconclusive [inhibitor, partial curve] | 
66 | Cc1ccc(-c2csc(NC(=O)C3CSC4(C)CCC(=O)N34)n2)cc1 (centres undefined) |  | inactive: 4.77%
67 | Cc1ccc(CNC(=O)C2CCN(S(=O)(=O)c3cccc4nonc34)CC2)cc1 | inconclusive [inhibitor, single point] | 
68 | C=C(C)c1cccc(C(C)(C)NC(=O)NC2CCN(Cc3ccccc3)CC2)c1 | inconclusive [inhibitor, single point] | 
69 | Cc1cc(C)c(NC(=O)C2CC(=O)N(c3ccc4c(c3)OCCO4)C2)c(C)c1 (centres undefined) | inconclusive [inhibitor, partial curve] | 
